B1: VLX4 IgG1 (xi): chimeric (murine-human) VLX4 anti-CD47 mAb, human IgG1 (antibody)
heavy: EVQLQQSGPELVKPGASVKMSCKASGYTFTNYVIHWVKRRPGQGLEWIGYIYPYNDGILYNEKFKGKATVTSDKSSSTAYMDLSSLTSEDSAVYYCTRGGYYVPDYWGQGTTLTVSS[human IgG1 constant region not given here]
light: DVLMTQTPLSLPVNLGDQASISCRSRQSIVHTNGNTYLGWFLQKPGQSPKLLIYKVSNRFSGVPDRFSGSGSGTDFTLTISRVEAEDLGVYYCFQGSHVPYTFGGGTKLEIKRTVAAPSVFIFPPSDEQLKSGTASVVCLLNNFYPREAKVQWKVDNALQSGNSQESVTEQDSKDSTYSLSSTLTLSKADYEKHKVYACEVTHQGLSSPVTKSFNRGEC
B2: VLX4 IgG1 N297Q (xi): chimeric VLX4 anti-CD47 mAb, human IgG1 N297Q (antibody)
heavy: EVQLQQSGPELVKPGASVKMSCKASGYTFTNYVIHWVKRRPGQGLEWIGYIYPYNDGILYNEKFKGKATVTSDKSSSTAYMDLSSLTSEDSAVYYCTRGGYYVPDYWGQGTTLTVSS[human IgG1 constant region with changes not given here]
light: B1 light
B3: VLX9 IgG1 N297Q (xi): chimeric VLX9 anti-CD47 mAb, human IgG1 N297Q (antibody)
heavy: QVQLQQFGAELAKPGASVQMSCKASGYTFTNYWIHWVKQRPGQGLEWIGYTDPRTDYTEYNQKFKDKATLAADRSSSTAYMRLSSLTSEDSAVYYCAGGGRVGLGYWGHGSSVTVSS[human IgG1 constant region with changes not given here]
light: DVFMTQTPLSLPVSLGDQASISCRSSQNIVQSNGNTYLEWYLQKPGQSPKLLIYKVFHRFSGVPDRFSGSGSGTDFTLKISRVEAEDLGVYYCFQGSHVPWTFGGGTKVEIKRTVAAPSVFIFPPSDEQLKSGTASVVCLLNNFYPREAKVQWKVDNALQSGNSQESVTEQDSKDSTYSLSSTLTLSKADYEKHKVYACEVTHQGLSSPVTKSFNRGEC
B4: VLX9 IgG4 PE (xi): chimeric VLX9 anti-CD47 mAb, human IgG4 PE (antibody)
heavy: QVQLQQFGAELAKPGASVQMSCKASGYTFTNYWIHWVKQRPGQGLEWIGYTDPRTDYTEYNQKFKDKATLAADRSSSTAYMRLSSLTSEDSAVYYCAGGGRVGLGYWGHGSSVTVSSASTKGPSVFPLAPCSRSTSESTAALGCLVKDYFPEPVTVSWNSGALTSGVHTFPAVLQSSGLYSLSSVVTVPSSSLGTKTYTCNVDHKPSNTKVDKRV[human IgG4 Fc with changes not given here]
light: B3 light
B5: VLX9 IgG1 (xi): chimeric VLX9 anti-CD47 mAb, human IgG1 (antibody)
heavy: QVQLQQFGAELAKPGASVQMSCKASGYTFTNYWIHWVKQRPGQGLEWIGYTDPRTDYTEYNQKFKDKATLAADRSSSTAYMRLSSLTSEDSAVYYCAGGGRVGLGYWGHGSSVTVSS[human IgG1 constant region not given here]
light: B3 light

Each molecule was assayed on Jurkat cells (assay: Phagocytosis of tumor cells by human macrophages). Conditions: 1 μg/ml mAb.
Type: cell-based
Method: Human derived macrophages were derived from leukapheresis of healthy human peripheral blood and incubated in AIM-V media (Life Technologies) for 7-10 days. For the in vitro phagocytosis assay, macrophages were re-plated at a concentration of 1×10^4 cells per well in 100 ul of AIM-V media in a 96-well plate and allowed to adhere for 24 hrs. Once the effector macrophages adhered to the culture dish, the target human cancer cells (Jurkat) were labelled with 1 μM 5(6)-Carboxyfluorescein diacetate N-succinimidyl ester (CFSE; Sigma Aldrich) and added to the macrophage cultures at a concentration of 5×10^4 cells in […] of AIM-V media (5:1 target to effector ratio). VLX4, VLX8, and VLX9 CD47 mAbs (1 μg/ml) were added immediately upon mixture of target and effector cells and allowed to incubate at 37° C. for 2-3 hours. After 2-3 hrs, all non-phagocytosed cells were removed and the remaining cells washed three times with phosphate buffered saline (PBS; Sigma Aldrich). Cells were then trypsinized, collected into microcentrifuge tubes, and incubated in 100 ng of allophycocyanin (APC) labelled CD14 antibodies (BD Biosciences) for 30 minutes, washed once, and analyzed by flow cytometry (Accuri C6; BD Biosciences) for the percentage of CD14^+ cells that were also CFSE^+ indicating complete phagocytosis.

Row | Molecule | phagocytosis of Jurkat cells by human macrophages
1 | B1 | increased phagocytosis
2 | B2 | increased phagocytosis
3 | B3 | increased phagocytosis
4 | B4 | increased phagocytosis

The molecules below were run on hRBCs (assay: Hemagglutination of washed human red blood cells). Conditions: hemagglutination; chimeric (xi) mAbs, Table 1.
Type: cell-based
Method: Hemagglutination of hRBCs was assessed following incubation of hRBCs with various concentrations of chimeric and humanized VLX4, VLX8, and VLX9 mAbs in vitro essentially as described by Kikuchi et al. Biochem Biophys Res. Commun (2004) 315:912-918. Blood was obtained from healthy donors, diluted (1:50) in PBS/1 mM EDTA/BSA and washed 3 times with PBS/EDTA/BSA. hRBCs were added to U-bottomed 96 well plates with equal volumes of the antibodies (75 μl of each) and incubated for 3 hrs at 37° C. and overnight at 4° C.

Row | Molecule | HA hRBC
5 | B1 | Yes
6 | B2 | Yes
7 | B3 | Yes
8 | B5 | Yes
9 | B4 | Yes

Source: patent publication US20220313819A1, “COMBINATION THERAPY FOR THE TREATMENT OF SOLID AND HEMATOLOGICAL CANCERS” (Arch Oncology, Inc., priority 2019, published 2022)
